Test results taken from patent US8067379B2, “Sulfur compounds as inhibitors of hepatitis C virus NS3 serine protease” (Schering Corporation, priority 2004, dated 2011).

The molecules below were run against Recombinant heterodimeric HCV NS3/NS4A protease (strain 1a) (Hepatitis C virus genotype 1a, UniProt P27958) (assay: Spectrophotometric assay for HCV serine protease inhibitory activity (chromogenic ester substrates)). Settings: Table 3, sulfone compounds; HCV serine protease; read-out: Ki* range.
Assay type: biochemical
`C=CCNC(=O)C(=O)C(CCC)NC(=O)[C@@H]1[C@@H]2C[C@H](CN1C(=O)[C@@H](NC(=O)NC1(CS(C)(=O)=O)CCCCC1)C(C)(C)C)C2(C)C` (stereo partly drawn) [Compound 217] showed a Ki of under 0.075 µM.
With `CC1(C)C[C@H]2[C@H](CN(C(=O)[C@@H](NC(=O)NC3(CS(C)(=O)=O)CCCCC3)C3CCCCC3)[C@@H]2C(=O)NC(CC2CC2)C(=O)C(N)=O)O1` (stereo partly drawn) [Compound 218] the Ki was under 0.075 µM.
Work on `C[C@@]1(CN=[N+]=[N-])C[C@H]2[C@H](CN(C(=O)[C@@H](NC(=O)NC3(CS(C)(=O)=O)CCCCC3)C3CCCCC3)[C@@H]2C(=O)NC(CC2CC2)C(=O)C(N)=O)O1` (stereo partly drawn) [Compound 219] yielded a Ki of under 0.075 µM.
Molecule `C=CCCNC(=O)C(=O)C(CC1CCC1)NC(=O)[C@@H]1[C@@H]2[C@H](CN1C(=O)[C@@H](NC(=O)NC1(CS(C)(=O)=O)CCCCC1)C(C)(C)C)C2(C)C` (stereo partly drawn) [Compound 220] has a Ki of under 0.075 µM.
For `C=CCCNC(=O)C(=O)C(CC1CCC1)NC(=O)[C@@H]1[C@@H]2[C@H](CN1C(=O)[C@@H](NC(=O)NC1(CS(=O)(=O)C(C)(C)C)CCCCC1)C(C)(C)C)C2(C)C` (stereo partly drawn) [Compound 221], the Ki was under 0.075 µM.
`CC(C)(C)[C@H](NC(=O)NC1(CS(=O)(=O)Cc2ccco2)CCCCC1)C(=O)N1C[C@H]2[C@@H]([C@H]1C(=O)NC(CC1CC1)C(=O)C(N)=O)C2(C)C` (stereo partly drawn) [Compound 222] gave a Ki of under 0.075 µM.
`C=CCCNC(=O)C(=O)C(CC1CC1)NC(=O)[C@@H]1[C@@H]2[C@H](CN1C(=O)[C@@H](NC(=O)NC1(CS(C)(=O)=O)CCCCC1)C(C)(C)C)C2(C)C` (stereo partly drawn) [Compound 223] gave a Ki of under 0.075 µM.
For `C=CCCNC(=O)C(=O)C(CC1CC1)NC(=O)[C@@H]1[C@@H]2[C@H](CN1C(=O)[C@@H](NC(=O)NC1(CS(=O)(=O)C(C)(C)C)CCCCC1)C(C)(C)C)C2(C)C` (stereo partly drawn) [Compound 224], the Ki was under 0.075 µM.
`CC1(C)C[C@H]2[C@H](CN(C(=O)[C@@H](NC(=O)NC3(CS(C)(=O)=O)CCCCC3)C3CCCCC3)[C@@H]2C(=O)NC(CC2CC2)C(=O)C(N)=O)S1` (stereo partly drawn) [Compound 225] was tested, and the Ki was 0.075 to 0.25 µM.
`CCCNC(=O)C(=O)C(CCC)NC(=O)[C@@H]1[C@@H]2[C@H](CN1C(=O)[C@@H](NC(=O)NC1(CS(C)(=O)=O)CCCCC1)C(C)(C)C)C2(C)C` (stereo partly drawn) [Compound 226] gave a Ki of under 0.075 µM.
Molecule `C=CCNC(=O)C(=O)C(CCC)NC(=O)[C@@H]1[C@@H]2[C@H](CN1C(=O)[C@@H](NC(=O)NC1(CS(=O)(=O)CC)CCCCC1)C(C)(C)C)C2(C)C` (stereo partly drawn) [Compound 227] has a Ki of under 0.075 µM.
In the case of `C=CCNC(=O)C(=O)C(CCC)NC(=O)[C@@H]1[C@@H]2[C@H](CN1C(=O)[C@@H](NC(=O)NC1(CS(=O)(=O)C(C)(C)C)CCCCC1)C(C)(C)C)C2(C)C` (stereo partly drawn) [Compound 228], the Ki is reported as under 0.075 µM.
For `CCCNC(=O)C(=O)C(CC1CC1)NC(=O)[C@@H]1[C@@H]2[C@H](CN1C(=O)[C@@H](NC(=O)NC1(CS(C)(=O)=O)CCCCC1)C(C)(C)C)C2(C)C` (stereo partly drawn) [Compound 229], the Ki was under 0.075 µM.
In the case of `C=CCNC(=O)C(=O)C(CCC)NC(=O)[C@@H]1[C@@H]2[C@H](CN1C(=O)[C@@H](NC(=O)N[C@H](CS(=O)(=O)c1ccccn1)C(C)C)C(C)(C)C)C2(C)C` (stereo partly drawn) [Compound 230], the Ki is reported as over 0.25 µM.
For `CC(C)[C@@H](CS(=O)(=O)c1ccccn1)NC(=O)N[C@H](C(=O)N1C[C@H]2[C@@H]([C@H]1C(=O)NC(CC1CC1)C(=O)C(N)=O)C2(C)C)C(C)(C)C` (stereo partly drawn) [Compound 231], the Ki was under 0.075 µM.
`CCS(=O)(=O)CC1(NC(=O)N[C@H](C(=O)N2C[C@H]3[C@@H]([C@H]2C(=O)NC(CC2CCC2)C(=O)C(N)=O)C3(C)C)C(C)(C)C)CCCCC1` (stereo partly drawn) [Compound 232] was tested, and the Ki was under 0.075 µM.
`Cc1occc1S(=O)(=O)CC1(NC(=O)N[C@H](C(=O)N2C[C@H]3[C@@H]([C@H]2C(=O)NC(CC2CC2)C(=O)C(N)=O)C3(C)C)C(C)(C)C)CCCCC1` (stereo partly drawn) [Compound 233] showed a Ki of under 0.075 µM.
Molecule `CC(C)(C)[C@H](NC(=O)NC1(CS(C)(=O)=O)CCCCC1)C(=O)N1C[C@H]2C[C@@H]([C@H]1C(=O)NC(CC1CC1)C(=O)C(N)=O)C2(C)C` (stereo partly drawn) [Compound 234] has a Ki of over 0.25 µM.
For `CC(C)(C)[C@H](NC(=O)NC1(CS(C)(=O)=O)CCCCC1)C(=O)N1C[C@H]2C[C@@H]([C@H]1C(=O)NC(CC1CCC1)C(=O)C(N)=O)C2(C)C` (stereo partly drawn) [Compound 235], the Ki was under 0.075 µM.
For `C=CCNC(=O)C(=O)C(CCC)NC(=O)[C@@H]1[C@@H]2[C@H](CN1C(=O)[C@@H](NC(=O)NC1(CS(=O)(=O)Cc3ccco3)CCCCC1)C(C)(C)C)C2(C)C` (stereo partly drawn) [Compound 236], the Ki was under 0.075 µM.
`C#CCCC(NC(=O)[C@@H]1[C@@H]2[C@H](CN1C(=O)[C@@H](NC(=O)NC1(CS(=O)(=O)Cc3ccco3)CCCCC1)C(C)(C)C)C2(C)C)C(=O)C(=O)NCC=C` (stereo partly drawn) [Compound 237] was tested, and the Ki was under 0.075 µM.
With `CCCNC(=O)C(=O)C(CCC)NC(=O)[C@@H]1[C@@H]2[C@H](CN1C(=O)[C@@H](NC(=O)NC1(CS(=O)(=O)CC)CCCCC1)C(C)(C)C)C2(C)C` (stereo partly drawn) [Compound 238] the Ki was under 0.075 µM.
For `CCCNC(=O)C(=O)C(CCC)NC(=O)[C@@H]1[C@@H]2[C@H](CN1C(=O)[C@@H](NC(=O)NC1(CS(=O)(=O)C(C)(C)C)CCCCC1)C(C)(C)C)C2(C)C` (stereo partly drawn) [Compound 239], the Ki was under 0.075 µM.
In the case of `CC(C)(C)[C@H](NC(=O)NC1(CS(=O)(=O)C(C)(C)C)CCCCC1)C(=O)N1C[C@H]2[C@@H]([C@H]1C(=O)NC(CC1CCC1)C(=O)C(N)=O)C2(C)C` (stereo partly drawn) [Compound 240], the Ki is reported as under 0.075 µM.
Molecule `C=CCNC(=O)C(=O)C(CCC)NC(=O)[C@@H]1CCCN1C(=O)[C@@H](NC(=O)NC1(CS(C)(=O)=O)CCCCC1)C(C)(C)C` (stereo partly drawn) [Compound 241] has a Ki of over 0.25 µM.
`C=CCNC(=O)C(=O)C(CCC)NC(=O)[C@@H]1[C@@H]2[C@H](CN1C(=O)[C@@H](NC(=O)NC1(CS(C)(=O)=O)CCCCC1)C1CCCCC1)C2(C)C` (stereo partly drawn) [Compound 242] gave a Ki of under 0.075 µM.
Molecule `C=CCNC(=O)C(=O)C(CCC)NC(=O)[C@@H]1CCCN1C(=O)[C@@H](NC(=O)NC1(CS(=O)(=O)C(C)(C)C)CCCCC1)C(C)(C)C` (stereo partly drawn) [Compound 243] has a Ki of over 0.25 µM.
`C=CCNC(=O)C(=O)C(CCC)NC(=O)[C@@H]1CCCN1C(=O)[C@@H](NC(=O)NC1(CS(=O)(=O)C(C)(C)C)CCCCC1)C1CCCCC1` (stereo partly drawn) [Compound 244] showed a Ki of under 0.075 µM.
`CC(C)(C)[C@H](NC(=O)NC1(CS(=O)(=O)c2ccccn2)CCCCC1)C(=O)N1C[C@H]2[C@@H]([C@H]1C(=O)NC(CC1CCC1)C(=O)C(N)=O)C2(C)C` (stereo partly drawn) [Compound 245] gave a Ki of under 0.075 µM.
`C#CCCC(NC(=O)[C@@H]1[C@@H]2[C@H](CN1C(=O)[C@@H](NC(=O)NC1(CS(C)(=O)=O)CCCCC1)C(C)(C)C)C2(C)C)C(=O)C(=O)NCCC` (stereo partly drawn) [Compound 246] showed a Ki of under 0.075 µM.
With `CCCCC(NC(=O)[C@@H]1[C@@H]2[C@H](CN1C(=O)[C@@H](NC(=O)NC1(CS(=O)(=O)C(C)(C)C)CCCCC1)C(C)(C)C)C2(C)C)C(=O)C(=O)NCCC` (stereo partly drawn) [Compound 247] the Ki was under 0.075 µM.
`C#CCCC(NC(=O)[C@@H]1[C@@H]2[C@H](CN1C(=O)[C@@H](NC(=O)NC1(CS(=O)(=O)C(C)(C)C)CCCCC1)C(C)(C)C)C2(C)C)C(=O)C(=O)NCCC` (stereo partly drawn) [Compound 248] was tested, and the Ki was under 0.075 µM.
For `C#CCCC(NC(=O)[C@@H]1[C@@H]2[C@H](CN1C(=O)[C@@H](NC(=O)NC1(CS(=O)(=O)C(C)(C)C)CCCCC1)C(C)(C)C)C2(C)C)C(=O)C(=O)NCCC=C` (stereo partly drawn) [Compound 249], the Ki was under 0.075 µM.
With `C#CCCNC(=O)C(=O)C(CCC#C)NC(=O)[C@@H]1[C@@H]2[C@H](CN1C(=O)[C@@H](NC(=O)NC1(CS(=O)(=O)C(C)(C)C)CCCCC1)C(C)(C)C)C2(C)C` (stereo partly drawn) [Compound 250] the Ki was under 0.075 µM.
`CCCCNC(=O)C(=O)C(CCCC)NC(=O)[C@@H]1[C@@H]2[C@H](CN1C(=O)[C@@H](NC(=O)NC1(CS(=O)(=O)C(C)(C)C)CCCCC1)C(C)(C)C)C2(C)C` (stereo partly drawn) [Compound 251] showed a Ki of under 0.075 µM.
For `C#CCCC(NC(=O)[C@@H]1[C@@H]2[C@H](CN1C(=O)[C@@H](NC(=O)NC1(CS(=O)(=O)C(C)(C)C)CCCCC1)C(C)(C)C)C2(C)C)C(=O)C(=O)NC` (stereo partly drawn) [Compound 253], the Ki was under 0.075 µM.
Work on `C#CCCC(NC(=O)[C@@H]1[C@@H]2[C@H](CN1C(=O)[C@@H](NC(=O)NC1(CS(=O)(=O)C(C)(C)C)CCCCC1)C(C)(C)C)C2(C)C)C(=O)C(=O)NCCOC` (stereo partly drawn) [Compound 254] yielded a Ki of under 0.075 µM.
`C=CCNC(=O)C(=O)C(CCC(F)(F)F)NC(=O)[C@@H]1[C@@H]2[C@H](CN1C(=O)[C@@H](NC(=O)NC1(CS(=O)(=O)c3ccccn3)CCCCC1)C(C)(C)C)C2(C)C` (stereo partly drawn) [Compound 255] gave a Ki of under 0.075 µM.
For `CCCNC(=O)C(=O)C(CCC)NC(=O)[C@@H]1CCCN1C(=O)[C@@H](NC(=O)NC1(CS(=O)(=O)C(C)(C)C)CCCCC1)C1CCCCC1` (stereo partly drawn) [Compound 256], the Ki was under 0.075 µM.
With `C=CCNC(=O)C(=O)C(CCC)NC(=O)[C@@H]1[C@@H]2[C@H](CN1C(=O)[C@@H](NC(=O)NC1(CS(=O)(=O)c3ccccn3)CCCCC1)C(C)(C)C)C2(C)C` (stereo partly drawn) [Compound 257] the Ki was under 0.075 µM.
For `C#CCCC(NC(=O)[C@@H]1[C@@H]2[C@H](CN1C(=O)[C@@H](NC(=O)NC1(CS(=O)(=O)C(C)(C)C)CCCCC1)C(C)(C)C)C2(C)C)C(=O)C(=O)NCC#C` (stereo partly drawn) [Compound 258], the Ki was under 0.075 µM.
`C#CCCC(NC(=O)[C@@H]1[C@@H]2[C@H](CN1C(=O)[C@@H](NC(=O)NC1(CS(=O)(=O)C(C)(C)C)CCCCC1)C(C)(C)C)C21CCCC1)C(=O)C(=O)NCC=C` (stereo partly drawn) [Compound 259] gave a Ki of under 0.075 µM.
Work on `C#CCCC(NC(=O)[C@@H]1[C@@H]2[C@H](CN1C(=O)[C@@H](NC(=O)NC1(CS(=O)(=O)C(C)(C)C)CCCCC1)C(C)(C)C)C2(C)C)C(=O)C(=O)NCCSC` (stereo partly drawn) [Compound 260] yielded a Ki of under 0.075 µM.
For `CC(C)(C)[C@H](NC(=O)NC1(CS(=O)(=O)C(C)(C)C)CCCCC1)C(=O)N1C[C@H]2[C@@H]([C@H]1C(=O)NC(CC1CC1)C(=O)C(N)=O)C21CCCC1` (stereo partly drawn) [Compound 261], the Ki was under 0.075 µM.
`CCCC(NC(=O)[C@@H]1[C@@H]2[C@H](CN1C(=O)[C@@H](NC(=O)NC1(CS(=O)(=O)C(C)(C)C)CCCCC1)C(C)(C)C)C2(C)C)C(=O)C(N)=O` (stereo partly drawn) [Compound 262] gave a Ki of under 0.075 µM.
`CCCCC(NC(=O)[C@@H]1[C@@H]2[C@H](CN1C(=O)[C@@H](NC(=O)NC1(CS(=O)(=O)C(C)(C)C)CCCCC1)C(C)(C)C)C2(C)C)C(=O)C(N)=O` (stereo partly drawn) [Compound 263] showed a Ki of under 0.075 µM.
`CC(C)(C)[C@H](NC(=O)NC1(CS(=O)(=O)C(C)(C)C)CCCCC1)C(=O)N1C[C@H]2[C@@H]([C@H]1C(=O)NC(CC1CC1)C(=O)C(N)=O)C21CC1` (stereo partly drawn) [Compound 264] gave a Ki of under 0.075 µM.
In the case of `C#CCCC(NC(=O)[C@@H]1[C@@H]2[C@H](CN1C(=O)[C@@H](NC(=O)NC1(CS(=O)(=O)c3ccccn3)CCCCC1)C(C)(C)C)C2(C)C)C(=O)C(=O)NCC=C` (stereo partly drawn) [Compound 265], the Ki is reported as under 0.075 µM.
